According to the supplement of paper PMC9446081:
The whole screen tested about 39,000 compounds, of which about 220 (0.56%) showed activity. Some of the results follow.

system: Escherichia coli K-12 BW25113; test: relative growth (OD600 normalised to plate interquartile mean) (fraction); higher = less growth inhibition, active = 0.2 or less; conditions: 50 µM; LB; incubation time: overnight (16-24 h)
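Note: static incubation at 37 °C against the wild-type strain, values averaged over two biological replicates.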

| SMILES | relative growth |
| --- | --- |
| COc1ccc(S(=O)(=O)Nc2ccc3c(c2)C(=O)N([C@@H](C)CO)C[C@@H](C)[C@H](CN(C)S(=O)(=O)c2ccc(F)cc2)O3)cc1 | inactive: 1.03 |
| N=C(N=C(N)N)NCCc1ccccc1 | inactive: 1 |
| CCCCC/C=C\C=C\CCCCCCCCC(=O)O | inactive: 1 |
| CC(C)CN(C[C@@H](O)[C@H](Cc1ccccc1)NC(=O)O[C@H]1CCOC1)S(=O)(=O)c1ccc(N)cc1 | inactive: 1.03 |
| C[C@@H]1CCCCO[C@@H](CN(C)C(=O)Cc2ccccc2)[C@H](C)CN([C@H](C)CO)C(=O)c2cc(NC(=O)CCC(F)(F)F)ccc2O1 | inactive: 0.991 |
| C[C@@H]1CCCCO[C@H](CN(C)S(=O)(=O)c2cccs2)[C@H](C)CN([C@H](C)CO)C(=O)c2cc(NC(=O)c3ccccc3)ccc2O1 | inactive: 1.01 |
| O=C(C[C@@H]1C=C[C@H](NS(=O)(=O)c2ccc(F)cc2)[C@@H](CO)O1)N1CCC(Cc2ccccc2)CC1 | inactive: 1.01 |
| COc1ccc(CN(C)C[C@H]2OCCCC[C@H](C)Oc3ccc(NC(=O)c4ccncc4)cc3C(=O)N([C@H](C)CO)C[C@@H]2C)cc1 | inactive: 0.998 |
| C[C@H](CO)N1C[C@H](C)[C@@H](CN(C)C(=O)Nc2ccc(F)cc2)OCCCC[C@H](C)Oc2ccc(NC(=O)Nc3cccc4ccccc34)cc2C1=O | inactive: 1.04 |
| Cc1ccc(S(=O)(=O)N(C)C[C@H]2OCCCC[C@@H](C)Oc3ccc(NC(=O)Nc4ccc(C(F)(F)F)cc4)cc3C(=O)N([C@@H](C)CO)C[C@@H]2C)cc1 | inactive: 1.04 |
| C[C@H]1CN([C@@H](C)CO)C(=O)c2cc(C#Cc3cccc(F)c3)cnc2O[C@H]1CN(C)Cc1ccccn1 | inactive: 1 |
| C[C@@H]1CCCCO[C@@H](CN(C)C(=O)C2CCCCC2)[C@H](C)CN([C@H](C)CO)C(=O)c2cc(NS(=O)(=O)c3ccc(F)cc3)ccc2O1 | inactive: 0.993 |
| Cc1ccc(NC(=N)N=C(N)N)c(C)c1 | inactive: 0.963 |
| O=c1cc(Oc2ccc(O)cc2)oc2cc(O[C@@H]3O[C@H](CO[C@@H]4O[C@H](CO)[C@@H](O)[C@H](O)[C@H]4O)[C@@H](O)[C@H](O)[C@H]3O)cc(O)c12 | inactive: 0.994 |
| C[C@H](CO)N1C[C@H](C)[C@H](CN(C)C(=O)Cc2ccccc2)OCCCC[C@H](C)Oc2ccc(NC(=O)Nc3cccc4ccccc34)cc2C1=O | inactive: 1 |
| C[C@@H]1CN([C@@H](C)CO)C(=O)c2cccc(NS(C)(=O)=O)c2O[C@H]1CN(C)S(=O)(=O)c1ccc(F)cc1 | inactive: 1.02 |
| COc1ccc(S(=O)(=O)N(C)C[C@@H]2Oc3ccc(NC(=O)CCN4CCOCC4)cc3C(=O)N([C@@H](C)CO)C[C@@H]2C)cc1 | inactive: 1.02 |
| CO[C@H]1CN(C)C(=O)c2cc(NS(C)(=O)=O)ccc2OC[C@@H](C)N(C(=O)CN(C)C)C[C@@H]1C | inactive: 1 |
| C[C@@H]1CN([C@@H](C)CO)S(=O)(=O)c2ccc(-c3cncnc3)cc2O[C@H]1CN(C)C(=O)C1CCCCC1 | inactive: 1.02 |
| C[C@H]1CN([C@@H](C)CO)C(=O)c2cccc(NC(=O)Nc3cccc4ccccc34)c2O[C@H]1CN(C)S(=O)(=O)c1ccc(F)cc1 | inactive: 0.946 |
| Cc1noc(C)c1NC(=O)Nc1ccc2c(c1)C(=O)N([C@H](C)CO)C[C@@H](C)[C@H](CN(C)S(C)(=O)=O)O2 | inactive: 0.983 |

| SMILES | relative growth |
| --- | --- |
| C[C@H](CO)N1C[C@H](C)[C@H](CN(C)C(=O)Nc2ccc(C(F)(F)F)cc2)Oc2ccc(NC(=O)Nc3ccc(F)cc3)cc2C1=O | inactive: 0.977 |
| C[C@@H]1CCCCO[C@H](CN(C)C(=O)Nc2ccc(C(F)(F)F)cc2)[C@H](C)CN([C@H](C)CO)C(=O)c2cc(NC(=O)Cc3ccccc3)ccc2O1 | inactive: 1.03 |
| O=P([O-])(O)C(O)(Cc1cccnc1)P(=O)(O)O.[Na+] | inactive: 1.08 |
| C[C@@H]1CN([C@H](C)CO)C(=O)c2cccc(NS(=O)(=O)c3cn(C)cn3)c2O[C@@H]1CN(C)Cc1ccc(C(=O)O)cc1 | inactive: 1.03 |
| CC(C)c1ccccc1O | inactive: 0.97 |
| Cc1c(-c2cnccn2)ssc1=S | inactive: 1.13 |
| C[C@@H]1CCCCO[C@@H](CN(C)C(=O)Nc2ccc(F)cc2)[C@H](C)CN([C@H](C)CO)C(=O)c2cc(NS(=O)(=O)c3cccs3)ccc2O1 | inactive: 1.03 |
| C[C@@H]1CN([C@@H](C)CO)C(=O)c2c(c3ccccc3n2C)-c2ccccc2CO[C@@H]1CN(C)Cc1cccc(F)c1 | inactive: 0.985 |
| O=C(CN1CCOCC1)NCC[C@@H]1CC[C@H](NC(=O)Nc2ccccc2)[C@@H](CO)O1 | inactive: 1.02 |
| CCC(=O)Nc1ccc2c(c1)OC[C@@H](C)N(Cc1ccc(-c3ccccn3)cc1)C[C@@H](C)[C@H](OC)CN(C)C2=O | inactive: 1 |
| C[C@@H]1CCCCO[C@H](CN(C)Cc2ccccc2)[C@H](C)CN([C@@H](C)CO)C(=O)c2cc(NC(=O)c3ccncc3)ccc2O1 | inactive: 1.01 |
| COc1ccc(S(=O)(=O)N(C)C[C@H]2Oc3ccc(NC(=O)Cn4cnnn4)cc3CC(=O)N([C@@H](C)CO)C[C@@H]2C)cc1 | inactive: 0.994 |
| COCC(=O)N(C)C[C@@H]1Oc2cc(C#Cc3ccccc3)ccc2S(=O)(=O)N([C@H](C)CO)C[C@@H]1C | inactive: 1.01 |
| COc1ccc(NC(=O)Nc2ccc3c(c2)C(=O)N([C@@H](C)CO)C[C@@H](C)[C@H](CN(C)Cc2ccc(-c4ccccc4)cc2)O3)cc1 | inactive: 1.03 |
| CN([NH2+][O-])C(=O)N[C@@H]1[C@@H](O)[C@H](O)[C@H](CO)O[C@@H]1O | inactive: 0.799 |
| C[C@@H]1CN([C@@H](C)CO)C(=O)c2cc(NS(=O)(=O)c3cccs3)ccc2O[C@H]1CN(C)Cc1ccc(Oc2ccccc2)cc1 | inactive: 0.996 |
| O=C1CN(S(=O)(=O)Cc2ccccc2)C[C@H]2[C@@H](c3ccc(C#Cc4ccc(F)cc4)cc3)[C@H](CO)N12 | inactive: 1.03 |
| C[C@@H]1CCCCO[C@@H](CN(C)C(=O)CCC(F)(F)F)[C@@H](C)CN([C@@H](C)CO)C(=O)c2cc(NC(=O)Cc3ccccc3)ccc2O1 | inactive: 1 |
| C[C@@H]1CN([C@@H](C)CO)C(=O)c2cccc(NC(=O)C3CCOCC3)c2O[C@@H]1CN(C)Cc1ccncc1 | inactive: 0.989 |
| O=C(NO)c1ccncc1 | inactive: 0.99 |
| COc1ccc(NC(=O)Nc2cccc3c2O[C@@H](CN(C)Cc2ccc(C(F)(F)F)cc2)[C@@H](C)CN([C@H](C)CO)C3=O)cc1 | inactive: 0.986 |

| SMILES | relative growth |
| --- | --- |
| NS(=O)(=O)c1ccccc1 | inactive: 0.985 |
| C[C@@H]1CN([C@H](C)CO)S(=O)(=O)c2ccc(C#CC3(O)CCCC3)cc2O[C@@H]1CN(C)C(=O)Cc1ccccc1 | inactive: 1.03 |
| CN1CCN(C(=O)[C@@H]2[C@@H](CO)[C@@H]3Cn4c(ccc(C5=CCCCC5)c4=O)[C@H]2N3S(C)(=O)=O)CC1 | inactive: 0.964 |
| C[C@H]1CN([C@@H](C)CO)C(=O)c2c(c3ccccc3n2C)-c2ccccc2CO[C@H]1CN(C)Cc1ccc(Oc2ccccc2)cc1 | inactive: 1.01 |
| COc1ccc(CN(C)C[C@H]2OCCCC[C@H](C)Oc3ccc(NC(=O)Nc4ccc(OC)cc4)cc3C(=O)N([C@H](C)CO)C[C@H]2C)cc1 | inactive: 0.975 |
| CCC(=O)Nc1ccc(C)c(C)c1 | inactive: 1.02 |
| COc1ccc(S(=O)(=O)Nc2ccc3c(c2)C(=O)N([C@H](C)CO)C[C@@H](C)[C@H](CN(C)S(=O)(=O)c2ccccc2)O3)cc1 | inactive: 1.03 |
| C[C@@H]1CCCCO[C@H](CN(C)C(=O)c2ccccc2)[C@H](C)CN([C@@H](C)CO)C(=O)c2cc(NC(=O)Nc3ccc(F)cc3)ccc2O1 | inactive: 1.01 |
| C[C@H](CO)N1C[C@H](C)[C@H](CN(C)Cc2ccc(Oc3ccccc3)cc2)Oc2ccc(NC(=O)Nc3ccccc3)cc2C1=O | inactive: 1.02 |
| C[C@@H]1CN([C@H](C)CO)C(=O)c2cc(NC(=O)NC3CCCCC3)ccc2O[C@@H](C)CCCCO[C@H]1CN(C)C(=O)c1ccccc1 | inactive: 0.973 |
| C[C@@H]1CN([C@@H](C)CO)C(=O)CCCn2nncc2CO[C@@H]1CN(C)Cc1ccc(C(=O)Nc2ccccc2N)cc1 | inactive: 1.02 |
| O=C(c1cnn2c1OCCC2)N1CC(O)C1 | inactive: 1.03 |
| C[C@H](CO)N1C[C@H](C)[C@@H](CN(C)S(C)(=O)=O)Oc2ccc(NS(=O)(=O)c3cccs3)cc2C1=O | inactive: 0.974 |
| C[C@H](CO)N1C[C@H](C)[C@@H](CN(C)S(=O)(=O)c2cccs2)OCCCC[C@H](C)Oc2ccc(NS(C)(=O)=O)cc2C1=O | inactive: 1.01 |
| CN1C(=O)c2cc(NC(=O)Cc3cccs3)ccc2OC[C@@H]2O[C@H](CC(=O)NCCCN3CCOCC3)CC[C@H]21 | inactive: 1.02 |
| COc1cccc(NC(=O)N(C)C[C@@H]2OCc3ccccc3-c3c(n(C)c4ccccc34)C(=O)N([C@H](C)CO)C[C@@H]2C)c1 | inactive: 1.02 |
| C[C@H](CO)N1C[C@H](C)[C@@H](CN(C)Cc2ccc(C(=O)O)cc2)Oc2ccc(NC(=O)C3CC3)cc2CC1=O | inactive: 0.989 |
| C[C@@H]1CN([C@H](C)CO)C(=O)c2cc(NS(=O)(=O)c3cccs3)ccc2O[C@H]1CN(C)Cc1ccc(Cl)c(Cl)c1 | inactive: 0.994 |
| C=CCC[C@H](Cc1ccc(F)cc1)C(=O)O[C@H](CNC(=O)[C@@H](CC=C)CC(=O)N(CCO)Cc1ccccc1)c1ccccc1 | inactive: 1.11 |
